Measurements from ChEMBL document CHEMBL4888484, “Replenishing the malaria drug discovery pipeline: Screening and hit evaluation of the MMV Hit Generation Library 1 (HGL1) against asexual blood stage Plasmodium falciparum ,using a nano luciferase reporter read-out” (2022).
About 420 (8.8%) of roughly 4,800 compounds showed an effect of 50% or more. Some of the results follow.

The compounds below were run on Plasmodium falciparum (assay: Confirmatory screen in NF54 nanoGlo assay, in single point, at 2uM, 72h). Details: timepoint 72 hour.
Format: functional, Erythrocyte

SMILES | % Inhibition [%]
CC(C)c1ccc([C@H](C(=O)Nc2ccc3c(c2)OCO3)N(Cc2ccccc2)C(=O)Cn2nnc3ccccc32)cc1 | -11
Cc1cc(Br)cc(N[C@H](c2cccnc2)c2ncc[nH]2)c1 | 40
COc1cc([C@@H]2C=C(c3ccc(Cl)cc3)Nc3ncnn32)ccc1OCc1ccc(Cl)cc1 | 3
CC(=O)N(CCN1CCOCC1)[C@H]1CCN(S(=O)(=O)c2cccc(Cl)c2)C1 | 1
CN1c2cc(C(=O)N3CCN(c4ccccc4Cl)CC3)ccc2C(=O)N2CCCC[C@H]21 | -7
CC1(C)C(=O)NCCN1C(=O)c1ccc2nccnc2c1 | 0
Cc1nc([C@H]2CC(=O)N(c3ccccc3)C2)no1 | -16
CN1N=C(C(=O)NCc2ccccn2)CCC1=O | 1
Nc1c(-c2ccc(F)cc2)nsc1C(=O)NC1CCN(Cc2ccccc2)CC1 | -4
Cn1c(=O)c2c(-c3ccc(Cl)cc3)n(-c3cccc4cccc(N)c34)cc2n(C)c1=O | 91
Cc1c(CCO)c(=O)n(C)n1C(=O)c1ccc(Cl)cc1 | 4
COc1cc(C(=O)Nc2ccc(Oc3cccc4[nH]ccc34)nc2)cc2c1OCCCO2 | 7
COc1ccc2nc(O)c(C(=O)Nc3ccc4c(c3F)CCNC4)cc2c1 | 99
COc1cc(F)c(NCc2csc(C3CC3)n2)cc1OC | -5
COc1cccc(CNCCCN2CCOCC2)c1OCc1ccc(F)cc1Cl | 2
CCn1nccc1CN(CCc1ccc(OC)c(OC)c1)S(=O)(=O)c1cnn(CC)c1C | -4
O=C1CCN(C(=O)COc2ccc(-c3ccccc3)cc2Cl)CCN1 | -13
COc1nccnc1N(C(C)=O)S(=O)(=O)c1ccc(NC(C)=O)cc1 | -13
Cc1cc(Cl)c2c(c1)C1(NC(CCC(=O)O)[C@H]3C(=O)N(C4CCCCC4)C(=O)[C@H]31)C(=O)N2 (some centres not stated) | -7
O=C(NCCc1cccnc1)OCC(F)(F)F | -6
NC(=O)c1ccc(NC(=O)N2CCC[C@H](c3cc(F)ccc3F)C2)cc1F | -10
COCc1cc2nn(CC(=O)Nc3ccc(F)cc3)c(=O)n2c(-c2ccccc2)n1 | -11
CCc1cc(N2CC[C@H]3[C@H](CCC(=O)N3CCCCO)C2)nc(C)n1 | -11
CC(C)(C)OC(=O)N1CCCC(C(O)C(F)(F)F)C1 (configuration not stated) | 6
COc1ccc(NC(=O)CCC(=O)NCc2ccco2)cc1 | 6
COc1ccc(-c2[nH]ncc2C(=O)NCC2CCCCC2)cc1OC | 2
COc1ccc(N[C@@H](C)C(=O)Nc2nc(C)cs2)c(OC)c1 | 2
